# Experimental data: PubChem BioAssay AID1224903 (Bradner/Qi Labs at DFCI, 2016)
# The list shows a part of the results. The main result of the screen is listed elsewhere. These columns were measured beside it and carry no call. Compounds called inactive in the main read-out are mostly missing here.
# Target: Chromobox protein homolog 7 (Homo sapiens) (UniProt O95931)
# Experiment: blockers of CBX7 binding to H3K27me3 peptide – biochemical, AlphaScreen, primary screen (AID 1224903)
# Conditions: AlphaScreen His6-CBX7 / biotin-H3K27me3 peptide binding; measured here: z-score of CBX7 signal; stronger effect = lower value
# Sequence of UniProt O95931 (O95931 whole entry, looked up): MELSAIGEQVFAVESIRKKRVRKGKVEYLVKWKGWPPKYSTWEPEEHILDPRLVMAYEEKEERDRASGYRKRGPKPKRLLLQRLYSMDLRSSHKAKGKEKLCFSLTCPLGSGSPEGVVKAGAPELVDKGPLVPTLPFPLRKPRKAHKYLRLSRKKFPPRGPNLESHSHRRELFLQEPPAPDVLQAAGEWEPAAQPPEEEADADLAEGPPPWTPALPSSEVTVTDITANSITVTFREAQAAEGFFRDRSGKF
row,Compound,z-score
1,CCCCOc1cccc(-c2nc3c(C(=O)OC)c[nH]n3c2NC2CCCC2)c1,-0.903
2,COc1ccc(CN2C(=O)c3cccnc3C2Nc2ccc(OC)c(Cl)c2)cc1 (configuration not stated),-10.8
3,Cc1ccc(-c2[nH]c(-c3c[nH]c4ccccc34)nc2-c2ccccc2)cc1,-0.62
4,Cc1ccccc1Nc1c(-c2ccccn2)nc2ccccn12,-17.2
5,Cc1ccc(Nc2nc(-c3c(C)nc4sccn34)cs2)c(C)c1,-0.65
6,CC(C)CN(CC(C)C)S(=O)(=O)c1ccc(C(=O)Nc2nnc(C3CC3)o2)cc1,-2.78
7,Cc1cc(C)c(OCC(O)Cn2cnc3ccccc32)c(C)c1 (configuration not stated),-9.74
8,O=C(Nc1nnc(-c2ccc(F)cc2)o1)c1ccc(S(=O)(=O)N2CCOCC2)cc1,-4.38
9,CCc1nnc(NC(=O)c2ccc(S(=O)(=O)N(C)Cc3ccccc3)cc2)o1,-5.47
10,COc1ccc(-c2cn(-c3ccc(Cl)cc3)c(SCC(=O)Nc3ccc(F)cc3)n2)cc1OC,-4.21
11,CCOC(=O)c1cnc2c(C)cc(C)cc2c1Nc1ccc(N2CCCCC2)cc1,-17.8
12,COc1cc(C(=O)NCc2nnc(SCC(=O)Nc3cc(C)on3)o2)cc(OC)c1OC,-14.6
13,N#Cc1nc(COc2ccccc2F)oc1N1CCN(Cc2ccccc2)CC1,-9.88
14,COc1ccc(C2c3c(-c4ccccc4)n[nH]c3C(=O)N2c2ccccc2)cc1 (configuration not stated),-6.98
15,CCCCn1cnc2cc(NCc3ccc(Cl)cc3)ccc21,-22.3
16,COc1ccc(OC)c(NC(=O)c2c(NCc3ccc(N(C)C)cc3)sc3c2CCCC3)c1,-27
17,COc1ccc(C(=O)Nc2nc(N3C(=O)c4ccccc4C3=O)n(-c3ccccc3)n2)cc1,-8.56
18,CCCCN(CCCNC(=O)C1CC(=O)N(CCc2ccccc2)C1)c1ccccc1 (configuration not stated),-1.02
19,C=CCN(CC=C)S(=O)(=O)c1ccc(C(=O)Nc2nnc(CC)o2)cc1,-10.3
20,CCC1CCCCN1S(=O)(=O)c1ccc(C(=O)Nc2nnc(-c3ccccc3Cl)o2)cc1 (configuration not stated),-4.16
21,CCOc1ccc(Nc2nc(-c3ccccn3)cs2)cc1,-13.5
22,CCCn1cnc2cc(NCc3ccccn3)ccc21,-18.7

row,Compound,z-score
1,O=C(Nc1nnc(C2CC2)o1)c1ccc(S(=O)(=O)N2CCCCCC2)cc1,-2.79
2,O=C(Nc1ccc(Cc2ccncc2)cc1)c1ncn[nH]1,-27.7
3,CCN(CC)c1ccc(Nc2nc(-c3c(C)nc4ccccn34)cs2)cc1,-18.3
4,c1ccc(-c2csc(Nc3ncccn3)n2)nc1,-19.5
5,C=CCN(CC=C)S(=O)(=O)c1ccc(C(=O)Nc2nnc(C3CC3)o2)cc1,-2.79
6,CCOC(=O)N1CCc2c(sc(NCc3cccs3)c2C(=O)Nc2cc(OC)ccc2OC)C1,-5.23
7,CCc1nnc(NC(=O)c2ccc(S(=O)(=O)N3CCCC3)cc2)o1,-12.3
8,CN(C)S(=O)(=O)c1ccc(C(=O)Nc2nnc(-c3ccc(Cl)s3)o2)cc1,-13.1
9,CCOc1ccccc1NC(=O)CSc1nccn1-c1cccc(Cl)c1,-2.52
10,Fc1ccc(-c2[nH]c(-c3c[nH]c4ccccc34)nc2-c2ccccc2)cc1,-0.581
11,Oc1ccc(-c2[nH]c(-c3cccc(Cl)c3)nc2-c2ccccc2)cc1,-0.585
12,Cc1c(NC(=O)c2ncn[nH]2)cccc1-c1nc2ccccc2s1,-21.6
13,CCOC(=O)c1[nH]cnc1C(=O)Nc1ccccn1,-14.6
14,COc1ccc(NC(CNS(=O)(=O)c2ccccc2)c2ccccc2)cc1 (configuration not stated),-10.2
15,CCC(=C(c1ccc(OC)cc1)c1ccc(OC)cc1)c1cn(CC(O)CN2CCOCC2)c2ccccc12 (configuration not stated),-3.97
16,CCCn1cnc2cc(NCc3ccc(OCC)cc3)ccc21,-16
17,CCCCN1CCCc2cc(CN(CCCN3CCOCC3)C(=O)Nc3ccc(C)c(C)c3)ccc21,-15.4
18,CCCn1cnc2cc(NCc3cccc(Br)c3)ccc21,-19.3
19,Cc1cccnc1NC(c1ccccc1)c1ccc2cccnc2c1O (configuration not stated),-15.6
20,O=C(Nc1nnc(-c2ccc(Cl)s2)o1)c1ccc(S(=O)(=O)N2CCOCC2)cc1,-11.2
21,COC(=O)CNc1c(-c2ccccn2)nc2ccccn12,-29
22,O=C(Nc1ccc(N2CCCC2=O)cc1)c1ncn[nH]1,-9.73

row,Compound,z-score
1,CCc1ccc2oc(-c3ccc(NC(=O)c4ncn[nH]4)cc3)nc2c1,-17.3
2,COc1ccc(N2CCN(c3oc(COc4ccc(C)cc4)nc3C#N)CC2)cc1,-14.7
3,COc1ccc2c(c1)c(CC(=O)Nc1ccccn1)c(C)n2C(=O)c1ccc(Cl)cc1,-2.07
4,CN(Cc1ccccc1)c1oc(COc2ccccc2F)nc1C#N,-3.64
5,CC1CCN(Cc2cc(Cn3ccnc3)c3cccnc3c2O)CC1,-15.7
6,COc1ccc(-c2csc(Nc3ccc4c(c3)OCO4)n2)cc1F,-8.18
7,COc1ccc(CN2CC(C(=O)NCc3ccccn3)CC2=O)cc1 (configuration not stated),-11.9
8,c1ccc(Nc2c(-c3ccccn3)nc3ccccn23)cc1,-30.7
9,Cc1ccc(OCCCCc2c(C)n[nH]c2C)c(C(C)(C)C)c1,-20.8
10,O=C1C2=C(Nc3ccccc3SC2c2ccco2)c2ccccc21 (configuration not stated),-9.46
11,Cc1ccc2nc(-c3ccccn3)c(NC3CCCC3)n2c1,-19
12,O=C(O)c1cccc(Nc2nc(-c3ccccn3)cs2)c1,-16.9
13,CCN(CC)c1ccc(Nc2nc(-c3c(C)nc4ncccn34)cs2)cc1,-18.7
14,CCCCOc1ccc(-c2nc3c(C(=O)OC)c[nH]n3c2NC2CCCCCC2)cc1,-15.5
15,CCOc1ccc2nc(N3CCCC(C(=O)N4CCN(CC)CC4)C3)sc2c1 (configuration not stated),-10.6
16,Cc1ccc(OCCn2c(C3CC(=O)N(c4cc(C)ccc4C)C3)nc3ccccc32)cc1 (configuration not stated),-3.16
17,O=C(CCc1ccccc1)NC(c1cccs1)c1cc(Cl)c2cccnc2c1O (configuration not stated),-1.93
18,CCOc1ccc2nc(N3CCCC(C(=O)NCCCN4CCN(C)CC4)C3)sc2c1 (configuration not stated),-10.6
19,COc1ccc(N2CCN(Cc3nc(-c4ccc(C)cc4)no3)CC2)cc1,-6.54
20,CCCn1cnc2cc(NCc3ccc(C)cc3)ccc21,-15.4
21,O=C(CCCN1C(=O)c2cccnc2C1=O)N1CCN(c2ccccc2F)CC1,-6.29
22,Cc1ccc(C(c2ccccc2)N2CCN(CCCc3c[nH]c4ccccc34)CC2)cc1 (configuration not stated),-11.1

row,Compound,z-score
1,Cc1ccccc1Nc1c(-c2ccccn2)nc2cccc(C)n12,-16.4
2,O=C(Nc1nnc(C2CC2)o1)c1ccc(S(=O)(=O)N2CCCCC2)cc1,-2.76
3,Oc1ccc(-c2nc(-c3ccccc3)c(-c3ccc(Oc4ccccc4)cc3)[nH]2)cc1O,-2.19
4,CN(Cc1ccccc1)S(=O)(=O)c1ccc(C(=O)Nc2nnc(-c3ccc(F)cc3)o2)cc1,-14.4
5,CCOC(=O)c1cnc2ccc(OCC)cc2c1N1CCN(Cc2ccccc2)CC1,-0.565
6,Nc1nonc1-n1nnc(C(=O)O)c1CSc1nc2ccccc2o1,-26.2
7,O=C1CC(NCCN2CCOCC2)C(=O)N1c1ccc(Br)cc1 (configuration not stated),-8.2
8,Cc1ccc(Nc2c(-c3c[nH]c4ccccc34)nc3ccc(Br)cn23)cc1,-19.2
9,Oc1cccc(-c2nc(-c3ccccc3)c(-c3ccc(F)cc3)[nH]2)c1,-16.3
10,O=C1C2=C(Nc3ccccc3SC2c2cccs2)c2ccccc21 (configuration not stated),-9.38
11,CN(Cc1ccccc1)c1oc(COc2ccc(F)cc2)nc1C#N,-3.53
12,COC(=O)c1c[nH]n2c(NC3CCC(C)CC3)c(-c3ccc(C)cc3)nc12 (configuration not stated),-0.865
13,Cc1cccc(NC(=O)CSc2nccn2-c2cccc(Cl)c2)c1C,-1.88
14,O=S(=O)(Nc1nccs1)c1ccc(Nc2nnc(-c3ccc(Cl)cc3)c3ccccc23)cc1,-1.05
15,CCCCN(CC)S(=O)(=O)c1ccc(C(=O)Nc2nnc(CC)o2)cc1,-10.2
16,CC(C)n1cnc2cc(NCc3ccc(Br)cc3)ccc21,-17.9
17,Cc1cccc(OCC(O)Cn2cnc3cc(C)c(C)cc32)c1 (configuration not stated),-18
18,c1ccc(-c2csc(Nc3ccc4c(c3)OCO4)n2)cc1,-6.96
19,O=C1c2ccccc2C(Nc2cccnc2)N1c1cccnc1 (configuration not stated),-15.6
20,O=C(Nc1nnc(-c2ccccc2)o1)c1ccc(Br)cc1,-18.2
21,CCOc1ccc(NC(=O)c2c(NCc3cccs3)sc3c2CCCCC3)cc1,-7.81
22,OC(COc1ccccc1Cl)Cn1cnc2ccccc21 (configuration not stated),-7.98

row,Compound,z-score
1,CCOC(=O)c1cnc2ccc(OCC)cc2c1Nc1ccc(F)c(Cl)c1,-0.678
2,COc1ccc(-n2cnc3cc(NCc4nc5ccccc5n4C)ccc32)cc1,-3.73
3,c1ccc(-c2nc3ccccn3c2Nc2ccc3c(c2)OCCO3)nc1,-8.91
4,COc1ccc(CNc2ccc3c(c2)nc(C)n3Cc2ccccc2)cc1OC,-3.74
5,CCC(=C(c1ccc(OC)cc1)c1ccc(OC)cc1)c1cn(CC(O)CN2CCN(C)CC2)c2ccccc12 (configuration not stated),-4.41
6,COC(=O)c1c[nH]n2c(NC3CCC(C)CC3)c(-c3cccc(C)c3)nc12 (configuration not stated),-0.857
7,Cc1ccn2c(Nc3ccccc3)c(-c3ccccn3)nc2c1,-20.3
8,O=C1Nc2ccccc2Oc2cc([N+](=O)[O-])cc(Oc3cccc(Cl)c3Cl)c21,-5.72
9,Cc1nnc(NC(=O)c2ccc(S(=O)(=O)N3CCCCCC3)cc2)o1,-1.32
10,COc1ccc(-c2cc(-c3c(O)c(OC)c4occc4c3OC)[nH]n2)cc1OC,-5.93
11,Cc1cccc(C)c1Nc1c(-c2ccccn2)nc2ccc(Br)cn12,-0.978
12,Cc1ccccc1Nc1nc(-c2c(C)nc3sccn23)cs1,-0.669
13,O=C(CN1C(=O)CSc2ccccc21)NCCN1CCOCC1,-9.01
14,COc1cccc(-n2c(-c3ccc(C)cc3)cc3c2CC(C)(C)CC3=O)c1,-6.49
15,COc1ccc(CN2C(=O)c3cccnc3C2Nc2ccc(Br)c(C)c2)cc1 (configuration not stated),-10.9
16,Cc1ccc2[nH]c(C)c(CCNS(=O)(=O)c3ccc(F)cc3)c2c1,-0.545
17,O=C(Nc1nnc(C2CC2)o1)c1ccc(S(=O)(=O)N2CCOCC2)cc1,-5.36
18,CCc1nnc(NC(=O)c2ccc(S(=O)(=O)N(CCC#N)CCC#N)cc2)o1,-10.4
19,COc1ccc(-c2n[nH]c(C)c2-c2ccc3c(c2)OCCCO3)c(O)c1,-0.961
